# Data published in PubChem BioAssay AID504333 (National Center for Advancing Translational Sciences (NCATS), 2011).
# Out of some 360,000 compounds screened, about 16,000 (4.4%) were called active. The inconclusive results got no clear call from the source; some entries with a clear call stand among them for comparison. Calls come from the whole dose curve; as a rule, active = well fitted inhibition curve with a large enough effect; inconclusive = small, poorly fitted or top-dose-only effect; inactive = no such curve, though single readings can be large or run the other way. A potency beside an inconclusive call is a rough fit, not a confirmed value.
# Biological target: Bromodomain adjacent to zinc finger domain protein 2B (Homo sapiens) (UniProt Q9UIF8)
# UniProt Q9UIF8, sequence (Q9UIF8 whole entry, looked up, the tested form may be a part): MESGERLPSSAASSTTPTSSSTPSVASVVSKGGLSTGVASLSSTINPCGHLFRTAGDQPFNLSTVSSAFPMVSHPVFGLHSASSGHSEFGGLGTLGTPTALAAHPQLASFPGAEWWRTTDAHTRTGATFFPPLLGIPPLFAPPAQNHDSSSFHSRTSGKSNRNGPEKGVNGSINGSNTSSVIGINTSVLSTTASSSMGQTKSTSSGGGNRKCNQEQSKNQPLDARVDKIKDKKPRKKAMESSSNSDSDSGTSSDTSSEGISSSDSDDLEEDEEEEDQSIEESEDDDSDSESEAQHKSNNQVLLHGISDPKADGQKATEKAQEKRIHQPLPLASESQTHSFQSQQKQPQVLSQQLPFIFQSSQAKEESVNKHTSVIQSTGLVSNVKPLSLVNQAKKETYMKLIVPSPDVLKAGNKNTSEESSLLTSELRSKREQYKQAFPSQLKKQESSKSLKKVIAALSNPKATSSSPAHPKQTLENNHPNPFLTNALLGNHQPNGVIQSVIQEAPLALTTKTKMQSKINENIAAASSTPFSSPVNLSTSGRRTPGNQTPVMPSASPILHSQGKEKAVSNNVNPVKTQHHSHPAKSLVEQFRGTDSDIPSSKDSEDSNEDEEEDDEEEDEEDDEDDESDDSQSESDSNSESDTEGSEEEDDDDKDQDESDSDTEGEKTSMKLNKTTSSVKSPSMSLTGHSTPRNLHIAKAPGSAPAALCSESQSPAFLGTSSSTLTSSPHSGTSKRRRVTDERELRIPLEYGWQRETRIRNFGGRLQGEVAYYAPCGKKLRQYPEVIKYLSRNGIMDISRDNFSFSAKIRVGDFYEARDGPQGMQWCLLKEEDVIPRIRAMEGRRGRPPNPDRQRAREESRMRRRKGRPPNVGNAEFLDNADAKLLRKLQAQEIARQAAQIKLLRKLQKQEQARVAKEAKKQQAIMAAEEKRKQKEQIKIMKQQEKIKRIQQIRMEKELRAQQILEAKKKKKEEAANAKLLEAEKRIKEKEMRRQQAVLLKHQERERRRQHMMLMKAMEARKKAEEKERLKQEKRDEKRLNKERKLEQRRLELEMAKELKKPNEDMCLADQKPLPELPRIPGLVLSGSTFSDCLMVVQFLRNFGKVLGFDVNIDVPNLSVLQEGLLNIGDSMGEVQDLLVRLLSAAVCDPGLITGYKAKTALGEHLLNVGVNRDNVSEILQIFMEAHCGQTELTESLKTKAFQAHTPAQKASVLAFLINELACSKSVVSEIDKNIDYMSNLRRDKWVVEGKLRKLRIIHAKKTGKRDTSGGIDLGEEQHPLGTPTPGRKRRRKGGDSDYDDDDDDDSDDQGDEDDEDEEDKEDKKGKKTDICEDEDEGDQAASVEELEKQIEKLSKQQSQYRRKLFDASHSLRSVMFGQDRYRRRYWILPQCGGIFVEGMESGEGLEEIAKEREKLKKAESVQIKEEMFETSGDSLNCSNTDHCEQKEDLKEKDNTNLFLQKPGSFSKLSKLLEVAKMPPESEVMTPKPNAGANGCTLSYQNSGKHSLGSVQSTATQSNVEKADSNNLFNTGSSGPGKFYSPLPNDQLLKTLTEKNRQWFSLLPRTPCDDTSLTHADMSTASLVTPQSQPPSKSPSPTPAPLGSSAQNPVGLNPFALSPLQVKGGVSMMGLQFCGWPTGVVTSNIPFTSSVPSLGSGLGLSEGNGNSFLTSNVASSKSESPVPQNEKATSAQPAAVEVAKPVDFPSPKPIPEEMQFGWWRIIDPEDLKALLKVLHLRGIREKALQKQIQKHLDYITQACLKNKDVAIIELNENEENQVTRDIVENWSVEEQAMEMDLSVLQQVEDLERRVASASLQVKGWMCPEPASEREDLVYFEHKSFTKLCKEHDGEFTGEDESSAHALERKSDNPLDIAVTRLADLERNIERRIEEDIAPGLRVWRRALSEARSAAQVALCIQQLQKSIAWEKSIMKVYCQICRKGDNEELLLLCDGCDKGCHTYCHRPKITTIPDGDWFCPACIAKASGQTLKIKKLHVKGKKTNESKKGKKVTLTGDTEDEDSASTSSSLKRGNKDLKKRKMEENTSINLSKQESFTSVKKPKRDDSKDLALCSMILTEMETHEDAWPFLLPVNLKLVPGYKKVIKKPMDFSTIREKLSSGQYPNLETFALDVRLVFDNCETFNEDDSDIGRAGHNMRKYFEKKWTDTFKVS
# Assay: qHTS Assay for Inhibitors of BAZ2B; note: nearly all actives have a fitted effect of over 60% in size
# Conditions: AlphaScreen BAZ2B-H3K14Ac peptide displacement; series mostly up to 114 µM
# Outline: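 AlphaScreen luminescence quantifies BAZ2B engagement of H3K14Ac peptide; the protein and biotinylated peptide are both at 50 nM final, buffer PBS pH 7.4 with 0.01% Tween-20, all steps at room temperature.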
# Potency is the fitted concentration of half-maximal effect; tags give direction and shape of the fitted curve.
row,Structure (SMILES),Potency
1,C=CCn1c(SCC(=O)NCc2ccc3c(c2)OCO3)nnc1C1COc2ccccc2O1 (stereo not drawn),"inconclusive: 89.1 µM [inhibitor, single point]"
2,CC(=O)c1ccc(N(CC(=O)NC2CCCC2)C(=O)CCC(=O)Nc2cc(C)on2)cc1,inactive
3,CCc1ccc(-c2nc(CN3CCCC(C(=O)NCc4ccc(C)cc4)C3)c(C)o2)cc1 (stereo not drawn),inactive
4,N#C/C(=N\Nc1ccc([N+](=O)[O-])cc1)C(N)=S,active: 14.1 µM
5,O=C(O)CSCc1cnn(-c2ccccc2)c1-n1cccc1,"inconclusive: 89.1 µM [inhibitor, single point]"
6,CCOC(=O)CSc1ccc2nnc(-c3ccccc3)n2n1,inactive
7,CCN1C(=O)/C(=C2\C=Cc3cc(C)ccc3N2CC)OC1=S,"inconclusive: 28.2 µM [inhibitor, full curve]"
8,Cc1cc(=O)[nH]c(N/N=C/c2c(C)nn(-c3ccc(F)cc3)c2Cl)n1,"inconclusive: 89.1 µM [inhibitor, single point]"
9,CCOC(=O)/C=C1/SCC(=O)N1CC(=O)Nc1cccc(F)c1,inactive
10,COc1ccc2[nH]c(=O)c(CN(Cc3ccco3)C(c3nnnn3Cc3ccccc3)C(C)C)cc2c1 (stereo not drawn),"inconclusive: 89.1 µM [inhibitor, single point]"
11,CCc1cccc(NC(=O)C2CCCN(S(=O)(=O)c3cccnc3)C2)c1 (stereo not drawn),inactive
12,CCCOc1ccc(N2C(=O)CC(N3CCN(S(=O)(=O)c4ccccc4)CC3)C2=O)cc1 (stereo not drawn),"inconclusive: 11.2 µM [inhibitor, single point]"
13,COC(=O)/C(C#N)=C/c1c[nH]c2ccccc12,inactive
14,Cc1ccc(NC(=O)COc2coc(CN3CCN(c4ccccc4)CC3)cc2=O)cc1,inactive
15,COc1ccc(-c2nn(-c3ccccc3)cc2/C=C/C(=O)NCCCn2ccnc2)cc1OC,"inconclusive: 44.7 µM [inhibitor, partial curve]"
16,COc1cc(/C=C2/SC(=S)N(Cc3ccccc3)C2=O)cc(OC)c1O,active: 12.6 µM
17,COc1cccc(/C=C/C(=C2/C(=O)N(c3ccccc3)N=C2C)c2ccc(Br)cc2)c1OC,active: 1.26 µM
18,Cc1ccc([C@@H]2CC=C(C(=O)O)[C@H](c3ccc(F)cc3)N2S(=O)(=O)c2ccc(C)cc2)cc1,inactive
19,Cc1ccccc1-n1c(C)cc(/C=C2\NC(=O)NC2=O)c1C,"inconclusive: 79.4 µM [inhibitor, single point]"
20,COC(=O)C1CCN(c2ccc([N+](=O)[O-])cc2[N+](=O)[O-])CC1,"inconclusive: 56.2 µM [inhibitor, partial curve]"
21,Cc1nc2ncnn2c(C)c1CCC(=O)NCCc1ccccc1,inactive
22,CCN(CC)C(=O)C1CCCN(Cc2ccc(OC)c(C)c2)C1 (stereo not drawn),"inconclusive: 89.1 µM [inhibitor, single point]"
23,COc1cccc(NC(=O)CSc2ccc(-c3ccco3)nn2)c1,"inconclusive: 70.8 µM [inhibitor, single point]"
24,CCNc1nc(NCC)n2c(SCC(=O)Nc3ccc(F)cc3)nnc2n1,"inconclusive: 89.1 µM [inhibitor, single point]"
25,COc1ccc(NC(=O)N(C2CCCCC2)C(C)c2ccco2)c(OC)c1 (stereo not drawn),"inconclusive: 50.1 µM [inhibitor, partial curve]"

row,Structure (SMILES),Potency
1,Cc1cc2nc3s/c(=C/c4ccc(-c5ccccc5C(=O)O)o4)c(=O)n3c2cc1C,active: 50.1 µM
2,COCCNc1oc(-c2ccc(COc3ccc(OC)cc3)o2)nc1C#N,"inconclusive: 35.5 µM [inhibitor, partial curve]"
3,O=C(CSc1nnc(-c2ccc(Cl)cc2)o1)N1CCN(c2ccccc2)CC1,"inconclusive: 79.4 µM [inhibitor, single point]"
4,O=C(CCS(=O)(=O)c1cccc2nsnc12)NCc1ccccc1Cl,inactive
5,COc1ccc(C2C(C(=O)c3ccco3)=C(O)C(=O)N2CC2CCCO2)cc1OC (stereo not drawn),inactive
6,COc1ccc(-c2noc(CSc3nnc(Cc4ccccc4)n3-c3ccccc3)n2)cc1OC,inactive
7,O=C(NN1C(=O)/C(=C/c2ccc(O)cc2)SC1=S)c1cccc(O)c1,"inconclusive: 44.7 µM [inhibitor, partial curve]"
8,CCOC(=O)c1cnc2c(ccc3ccccc32)c1Nc1ccccc1OC,inactive
9,CCn1cc(C(=O)NCc2ccco2)c(=O)c2cc(F)c(N3CCN(C(=O)c4ccco4)CC3)cc21,active: 56.2 µM
10,O=C(CSc1n[nH]c(=O)[nH]c1=O)c1cccc([N+](=O)[O-])c1,"inconclusive: 89.1 µM [inhibitor, single point]"
11,Cc1ccc(S(=O)(=O)CCC(=O)Nc2ccc(Br)cc2C)cc1,inactive
12,Nc1nc(Nc2cccc(F)c2)nc(N2CCOCC2)c1[N+](=O)[O-],"inconclusive: 39.8 µM [inhibitor, partial curve]"
13,Cc1cc2c(c(=O)o1)C1O[C@](c3ccsc3)(Cc3cc(C#N)ccc31)O2,"inconclusive: 14.1 µM [inhibitor, single point]"
14,O=C1CCCc2cc(S(=O)(=O)NCC3CCC(C(=O)NCc4ccccc4Cl)CC3)ccc2N1 (stereo not drawn),inactive
15,COc1ccc(OC)c(-c2csc(NC(=O)COC(=O)c3ccc(NC(=O)CC#N)cc3)n2)c1,active: 39.8 µM
16,COc1ccc(S(=O)(=O)c2c(O)c3ccc(C(=O)NCc4ccccc4)cc3[nH]c2=O)cc1,"inconclusive: 79.4 µM [inhibitor, single point]"
17,C=CCc1cccc(C=Nc2cc(Br)ccc2O)c1O,"inconclusive: 79.4 µM [inhibitor, single point]"
18,Cc1ccc2oc(C(=O)Nc3ccc(S(=O)(=O)Nc4onc(C)c4C)cc3)c(C)c2c1,"inconclusive: 44.7 µM [inhibitor, partial curve]"
19,Cc1nc(COc2cccc(Cl)c2)sc1C(=O)/C=C/N(C)C,"inconclusive: 79.4 µM [inhibitor, single point]"
20,CCOC(=O)c1cnc2c(ccc3ccccc32)c1Nc1ccc(OCC)cc1,"inconclusive: 63.1 µM [inhibitor, partial curve, poor fit]"
21,O=C1Nc2ccccc2Nc2ncccc21,inactive
22,O=C(/C=C/c1ccc(OCc2c(F)cccc2Cl)cc1)N1CCOCC1,"inconclusive: 79.4 µM [inhibitor, single point]"
23,Cc1ccc(S(=O)(=O)Nc2ccc(N3CCOCC3)cc2)cc1,active: 56.2 µM
24,COc1cccc(CNC(=O)CCNS(=O)(=O)c2cccs2)c1,inactive
25,COc1ccc(-c2cc(C(F)(F)F)nc(SCC(=O)N3CCCCC3C)n2)cc1OC (stereo not drawn),inactive

row,Structure (SMILES),Potency
1,CN1C(=O)C2(c3ccccc31)N(C)CC(c1ccccn1)C21SC(=S)N(Cc2ccco2)C1=O (stereo not drawn),active: 22.4 µM
2,O=C(CCCNS(=O)(=O)c1cccs1)N1CCN(c2cccc(Cl)c2)CC1,inactive
3,CCOC(=O)C1CCCN(C(=O)Cn2ncc3c(C)n(Cc4ccccc4F)c(C)c3c2=O)C1 (stereo not drawn),"inconclusive: 50.1 µM [inhibitor, partial curve]"
4,CCc1c(C)nc(SCC(=O)N2CCCCC2CC)[nH]c1=O (stereo not drawn),inactive
5,O=C(O)c1ccc2nc(-c3ccccc3)c(-c3ccccc3)nc2c1,inactive
6,O=C(CCN1C(=O)/C(=C/c2ccc3c(c2)OCO3)SC1=S)Nc1ccc(C(=O)O)cc1,active: 35.5 µM
7,CCN(CC)c1ccc(C=C2C(=O)OC3(CCCC3)OC2=O)cc1,"inconclusive: 79.4 µM [inhibitor, single point]"
8,CCN(Cc1ccccc1)S(=O)(=O)c1ccc(C(=O)N(CCCN(C)C)c2nc3c(F)cccc3s2)cc1,"inconclusive: 44.7 µM [inhibitor, partial curve]"
9,O=[N+]([O-])c1cc(Cl)ccc1Nc1ccccc1,active: 5.01 µM
10,O=[N+]([O-])c1ccccc1Nc1ccc(O)cc1,active: 39.8 µM
11,Cc1nnc(NC(=O)c2ccc(S(=O)(=O)N3CC(C)CC(C)C3)cc2)o1 (stereo not drawn),"inconclusive: 79.4 µM [inhibitor, single point]"
12,Cc1cc(Br)c2nc3c(c(C(=O)O)c2c1)CCCCC3,inactive
13,N#Cc1ccsc1NC(=O)CCc1ccccc1,"inconclusive: 56.2 µM [inhibitor, partial curve]"
14,O=C(Cn1c2ccccc2c(=O)c2ccccc21)N/N=C/c1ccc(N2CCCC2)c([N+](=O)[O-])c1,inactive
15,COc1ccc(CCNC(=O)CNCC2CCCO2)cc1OC (stereo not drawn),"inconclusive: 89.1 µM [inhibitor, single point]"
16,COc1cc(C(=O)n2nc(C)cc2C)ccc1O,"inconclusive: 100 µM [inhibitor, single point]"
17,Cc1ccccc1-c1cn(-c2ccccc2)c(=S)[nH]1,"inconclusive: 56.2 µM [inhibitor, partial curve]"
18,Cc1ccc(NC(=O)[C@H](NC(=O)[C@@H]2Cc3ccccc3CN2)c2ccccc2)cc1,"inconclusive: 79.4 µM [inhibitor, single point]"
19,CCCCOc1ccc(C(=O)Nc2ccc(N3CCN(C)CC3)cc2)cc1,"inconclusive: 89.1 µM [inhibitor, single point]"
20,Cn1c(=S)c2[nH]c(SCCN3CCCC3)nc2n(C)c1=O,"inconclusive: 79.4 µM [inhibitor, single point]"
21,COc1ccc(C2C(C(=O)Nc3ccccc3OC)=C(C)Nc3c(C(=O)Nc4ccccc4)cnn32)c(OC)c1 (stereo not drawn),inactive
22,CN1CCCCc2c1nc1c(c2N)CCCC1,"inconclusive: 89.1 µM [inhibitor, single point]"
23,O=CN1Cc2ccccc2-c2ccccc2C1,"inconclusive: 89.1 µM [inhibitor, single point]"
